According to PubChem BioAssay (NCI):
“And” between values parts separate entries of the source, which are not always exact repeats. Equal values may be shown once.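 In this assay, cells in 96-well plates receive the compound at five concentrations for 48 hours. Endpoints are linearly interpolated between the surrounding concentrations. Abbreviation: GI50, concentration required for 50% inhibition of growth. TGI marks complete inhibition of growth.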

System: NCI-H322M lung
Test: NCI-60 cell line screen, 48 h

Row | SMILES | GI50 [µM] | TGI
1 | O=CC(Br)C(Br)c1ccccc1 (stereo not drawn) | 16.8 | 32.6 µM
2 | CN[C@@H]1C[C@H]2O[C@@](C)([C@@H]1OC)n1c3ccccc3c3c4c(c5c6ccccc6n2c5c31)C(=O)N[C@H]4O | 0.0613 | 0.941 µM
3 | COc1c(-c2cccs2)oc2c(CC(=O)O)cccc2c1=O | – | > 100 µM
4 | N#Cc1ccc(Nc2cnc3ccc(N)cc3n2)cc1 | – | > 100 µM
5 | O=S(=O)(O)c1cc(Nc2ccnc3ccccc23)c2c(S(=O)(=O)O)cc(S(=O)(=O)O)cc2c1 | – | > 100 µM
6 | Cc1nc2c(Cl)cc(Cl)cc2c(Cl)c1CCCl | – | > 100 µM
7 | CCN(CC)CCCC(C)Nc1c2ccc(Cl)cc2nc2cc(OC)c(OC)cc12 (stereo not drawn) | 1.73 | 5.07 µM
8 | CN1CCN(/C(N)=C(\C#N)C(=O)Nc2ccccc2)CC1 | – | > 100 µM
9 | S=c1nc2sc3c(c2c(Nc2ccc(Br)cc2)[nH]1)CCN(N1CCc2c(sc4nc(=S)[nH]c(Nc5ccc(Br)cc5)c24)C1)C3 | – | > 50 µM
10 | NC(=O)c1ncn2c(=O)n(CCl)nnc12 | – | > 100 µM
11 | COC(=O)[C@@]12OC[C@]34C([C@@H](O)C1O)[C@@]1(C)CC(=O)C(O)=C(C)C1C[C@H]3OC(=O)[C@H](OC(=O)/C=C(/c1ccccc1)C(F)(F)F)[C@H]42 (stereo partly drawn) | – | > 25 µM
12 | c1ccc(Nn2c(CCCCCCCCc3nnc(COc4ccccc4)n3Nc3ccccc3)nnc2COc2ccccc2)cc1 | > 300 | > 300 µM
13 | CC(C)(C)OC(=O)N1Cc2cc(O)ccc2C[C@H]1C(=O)O | – | > 100 µM
14 | CC(C)=CCCC1(Sc2ccccc2)C(=O)OCC1C=C(C)C (stereo not drawn) | – | > 100 µM
15 | c1cncc(-c2nc3ccccc3s2)c1 | > 100 | > 100 µM
16 | N#C/C(=C\Nc1ccccn1)C(=O)c1ccco1 | – | > 100 µM
17 | O=C(NN1C(=O)CSC1c1ccco1)c1ccncc1 (stereo not drawn) | – | > 100 µM
18 | CCn1c2ccc(C(=O)CCCN(C)C)cc2c2cc(C(=O)CCCN(C)C)ccc21 | – | 5.39 µM
19 | CCCC(=O)Nc1cc(/C=C/C(=O)N2CC(CCl)c3c2cc([N+](=O)[O-])c2ccccc32)n(C)c1 (stereo not drawn) | – | > 100 µM
20 | COc1ccc(-c2cn(-c3cccc(C(=O)/C=C/c4ccc(O)c(OC)c4)c3)c(=O)[nH]2)cc1 | 5.83 | > 92 µM
21 | O=C(Cn1c(=O)oc2ccc(C(=O)c3ccccc3Cl)cc21)c1ccc([N+](=O)[O-])cc1 | – | > 100 µM
22 | O=C(Nc1ccc2[nH]c(C(=O)N3CC(CCl)c4c3cc([N+](=O)[O-])c3ccccc43)cc2c1)c1cc2ccccc2o1 (stereo not drawn) | > 1100 | > 1100 µM
23 | C=C1C(=O)O[C@@H]2OC3(C)CCC4C(C)CCC1C42OO3 (stereo partly drawn) | 13.2 | 26 µM and 17.3 µM
24 | O=c1cc(-c2ccccc2)nc(/C=C(\O)c2ccncc2)n1-c1ccccc1 | – | > 100 µM

Row | SMILES | GI50 [µM] | TGI
25 | Cc1cc2c(cc1-c1cc3c(cc1C)C(C(C)C)=C(O)C(=O)/C3=C\Nc1c(C)n(C)n(-c3ccccc3)c1=O)/C(=C/Nc1c(C)n(C)n(-c3ccccc3)c1=O)C(=O)C(O)=C2C(C)C | – | > 100 µM
26 | Cc1ccc(-c2cc(=O)c3cc(C)c(C)c(C(=O)O)c3o2)cc1 | – | > 100 µM
27 | CCCCCCCC(=O)OCC1OC(n2cc(F)c(=O)[nH]c2=O)C(NC(=O)OCc2ccccc2)C(O)C1O (stereo not drawn) | – | > 100 µM
28 | C[C@]12CC[C@H](O)CC1=CC[C@@H]1[C@@H]2CC[C@]2(C)c3nc(Cl)ccc3C[C@@H]12 | – | > 100 µM
29 | COc1cc([C@H]2c3cc4c(cc3[C@H](NCc3ccc([N+](=O)[O-])cc3)C3COC(=O)[C@H]32)OCO4)cc(OC)c1O (stereo partly drawn) | – | > 100 µM
30 | O=C1C(Cl)=C(Nc2cccc(O)c2)C(=O)N1Cc1ccc(Cl)cc1 | 2.73 | 7.94 µM
31 | COc1ccc(N2C(N)=C(C#N)C(C#N)(C#N)C2c2cccc([N+](=O)[O-])c2)cc1 (stereo not drawn) | – | 32.7 µM
32 | O=C(NCCN1CCC(O)CC1)c1cc2c(o1)C(=O)c1ccccc1C2=O | 0.165 | 0.31 µM
33 | CCCCC1(N=[N+]=[N-])C(=O)C2C=CC=C3c4ccccc4N(C1=O)C32 (stereo not drawn) | – | > 31.6 µM
34 | CN(C(=O)C12C3(C(=O)C(C)(C)C)C4C5(C#N)C3C1(C(=O)C(C)(C)C)C5C42C(=O)C(C)(C)C)C(C)(C)C (stereo not drawn) | – | > 50 µM
35 | CC(=O)OC(C)(C)/C=C/C(=O)[C@](C)(O)[C@H]1[C@H](O)C[C@@]2(C)[C@@H]3CC=C4[C@@H](C[C@H](O)C(=O)C4(C)C)[C@]3(CO)C(=O)C[C@]12C | 2.68 | 62.5 µM
36 | COc1cc(C2c3cc4c(cc3OC3(OC)COC(=O)C23)OCO4)cc(OC)c1OC (stereo not drawn) | – | > 100 µM
37 | O=[N+]([O-])c1ccc2nc(/C=C(\O)c3ccccc3)c(/C=C(\O)c3ccccc3)nc2c1 | – | > 100 µM
38 | Clc1ccc(/C=N/Nc2nnc3c4ccccc4c4ncccc4c3n2)cc1 | – | > 10 µM
39 | Cc1cc([N+](=O)[O-])ccc1NS(=O)(=O)c1cc(Cl)ccc1Cl | 4.4 | > 100 µM
40 | O=C(O)C(C(=O)C(=O)C(C(=O)O)c1ccc(Cl)cc1)c1ccc(Cl)cc1 (stereo not drawn) | – | 15.5 µM
41 | COc1cccc2c1-c1c(OC)cccc1SS2 | – | > 100 µM
42 | O=C(O)CN(CC(=O)O)Cc1ccn(-c2cccc(-n3ccc(CN(CC(=O)O)CC(=O)O)n3)n2)n1 | – | > 100 µM
43 | c1ccc(CCN2CCN=C2Cc2ccccc2)cc1 | – | > 100 µM
44 | O=C1c2cc(-c3ccccc3)ccc2-c2c1c1ccc([N+](=O)[O-])cc1c(=O)n2CCCBr | > 50 | > 50 µM
45 | CSc1n(Cc2ccc3ccccc3c2)c(C)c[n+]1Cc1ccc2ccccc2c1 | 1.43 | 2.81 µM
46 | N#CCSc1c(-c2ccccc2)c(=O)n(-c2ccccc2)c(=S)n1-c1ccccc1 | – | > 100 µM
47 | CC(=O)OC1CC[C@@]2(C)C(CC[C@]3(C)C2CC=C2[C@@H]4CC(C)(C)CCC4(C)CCC23C)[C@@]1(C)C(=O)O (stereo partly drawn) | – | 36.8 µM
48 | CC(=O)NC(C)c1ccc(N=NN2CCCC2)cc1 (stereo not drawn) | – | > 100 µM

Row | SMILES | GI50 [µM] | TGI
49 | CO[C@H]1C[C@H](n2cc(C)c(=O)[nH]c2=O)O[C@@H]1CO | – | > 100 µM
50 | CC1CC(=O)Nc2ccc(N=NN(C)C)cc2N1C=O (stereo not drawn) | – | > 100 µM
51 | CNC(=O)c1ccccc1[S+]1c2cccc3cccc(c23)C(=O)N1C (stereo not drawn) | – | > 100 µM
52 | COc1ccc2c(c1)CCc1[nH]nc(-c3cc(OC)c(OC)c(OC)c3)c1-2 | < 0.01 | 39.5 µM
53 | Oc1ccc2ccccc2c1C1NN=C(c2ccccc2)S1 (stereo not drawn) | 0.575 | > 72.5 µM
54 | COc1cc(-c2csc(NC(=O)Nc3cc(C(F)(F)F)cc(C(F)(F)F)c3)n2)cc(OC)c1OC | 2.82 | 13.1 µM
55 | O=C(/C=C/c1cccc([N+](=O)[O-])c1)c1ccc(O)c(CN2CCN(c3cc4c(cc3F)c(=O)c(C(=O)O)cn4C3CC3)CC2)c1 | 2.86 | 11.6 µM
56 | O=C1OC(c2ccc(Cl)cc2)(c2ccc(Cl)cc2)c2c1ccc1ccccc21 | – | > 100 µM
57 | CC1=Nc2c(C#N)ncn2N=C(C)C1 | – | > 100 µM
58 | CCOC(=O)Cn1nnc2cc(Nc3nc4ccccc4nc3C(=O)OCC)ccc21 | – | > 100 µM
59 | CC1(C)CCC[C@]2(C)c3cc(O)ccc3CC[C@@H]12 | 18.3 | 33.4 µM
60 | O=C(Cc1ccccc1)N=Nc1c(O)[nH]c2ccccc12 | – | > 100 µM
61 | CC(C)N1CCC2(CC1)NNc1ncccc1-n1cccc12 | – | > 100 µM
62 | OC(C1CO1)C(O)C1CO1 (stereo not drawn) | 110 | 150 µM and 325 µM
63 | C[C@H](N)C(=O)N[C@@H]1[C@H]2C(=C(O)C[C@@H](O)[C@@H]2O)C(=O)O[C@@H]1C | – | > 100 µM
64 | COC(=O)c1c(O)ccc2c1c1c(n2Cc2ccccc2OC)C(=O)c2ccccc2C1 | – | > 100 µM
65 | O=C1c2ccccc2-c2nnc(-c3ccc(Cl)cc3)cc21 | – | > 10 µM
66 | Clc1cccc(N2CCN(CCN3CCc4c([nH]c5ccccc45)C3c3cccnc3)CC2)c1 (stereo not drawn) | – | > 100 µM
67 | Cc1c(O)c(=O)ccn1CCc1c[nH]c2ccccc12 | – | > 100 µM
68 | CCCOC(=O)N[C@H]1CCc2cc(OC)c(OC)c(OC)c2-c2ccc(SC)c(=O)cc21 | < 0.01 | > 100 µM
69 | Clc1ccc(C(c2ccc(Cl)cc2)N2CCNCC2)cc1 | – | 8.49 µM
70 | CN(C)C(=S)/N=c1\ss/c(=N\C(=S)N(C)C)n1-c1ccc(Cl)cc1 | – | > 100 µM
71 | C=CC[C@@H]1C=C[C@@H](C(=O)OC)n2c(=O)n(-c3ccccc3)c(=O)n21 | – | > 100 µM
72 | CNc1ncnc2c1nnn2C | – | > 100 µM

Row | SMILES | GI50 [µM] | TGI
73 | COC(=O)c1ccc(NC(=O)c2cc(OC)c(OC)c(OC)c2)cc1 | – | > 100 µM
74 | COC12OC3CC4(C)C(=CC3OC(OC(C)C1O)C2O)CCC1C4CCC2(C)C(c3ccc(=O)oc3)CCC12O (stereo not drawn) | – | 0.00252 µM
75 | CCCCCCCC(=O)OCC(C[As](=O)(O)O)OC(=O)CCCCCCC (stereo not drawn) | – | 29.4 µM
76 | O=C(O)C1C(=O)Oc2c(cccc2[N+](=O)[O-])C1O (stereo not drawn) | – | > 100 µM
77 | Cc1cc(Nc2ccc(F)cc2)nc(N2CCN(c3ccnc4cc(Cl)ccc34)CC2)n1 | > 100 | > 100 µM
78 | CCC(=O)C(C)C(=O)C(=O)C(=O)OC (stereo not drawn) | – | > 100 µM
79 | CCOC(=O)c1nc2cc(C(F)(F)F)ccc2nc1Nc1ccc(F)cc1 | – | > 100 µM
80 | CC(C)(C)c1cc(/C=C/C(=O)CC(=O)/C=C/c2cc(C(C)(C)C)c(O)c(C(C)(C)C)c2)cc(C(C)(C)C)c1O | – | > 50 µM
81 | CN1C(=O)C(=Cc2cn(Cc3ccccc3)c3ccccc23)C(=O)N(C)C1=O | 30.3 | > 100 µM
82 | CCOc1ccc2nc(-c3cccc(OCC(=O)NC(C)C)c3)nc(Nc3ccc(-c4cn[nH]c4)cc3)c2c1 | 0.552 | 3.44 µM
83 | COc1ccc2nc3cc([N+](=O)[O-])ccc3c(NCCCN(CCO)CCO)c2c1 | 7.09 | 19.1 µM
84 | Clc1cc(OCC23CC4CC(CC(C4)C2)C3)nc(OCC23CC4CC(CC(C4)C2)C3)n1 | – | > 100 µM
85 | CC(=O)OCc1ccc(O)c(C=O)c1 | – | > 100 µM
86 | COc1ccc2c(c1)c1nc3cc(C)c(C)cc3nc1n2CCN(C)C | 0.706 | 2.32 µM
87 | CCOc1cc2c(cc1O)CC[C@@H]1[C@@H]2CC[C@]2(C)C(OS(=O)OC3CC[C@@H]4[C@H]5CCc6cc(O)c(OCC)cc6[C@@H]5CC[C@@]34C)CC[C@@H]12 (stereo partly drawn) | – | > 100 µM
88 | C[n+]1c2ccccc2c(Nc2ccc(NS(=O)(=O)CCCCN=C(N)N)cc2)c2ccc(N)cc21 | 16.2 | > 85.5 µM
89 | C=CC[N+](CCO)(CCO)CCCCCCCCCCCCCCCCCC | – | 23.8 µM
90 | Clc1ccc2nc(CC3CCCC3)[nH]c2c1 | – | 50.5 µM
91 | CN(C)CCNC(=O)c1cccc2[nH]c(-c3ccncc3)nc12 | – | > 39.4 µM
92 | CN(C)CCCNc1cnc2cc3ccccc3cc2n1 | – | 88.4 µM
93 | CCOC(=O)c1cn(CC)c2cc3c(cc2c1=O)CCS3(=O)=O | – | > 100 µM
94 | C[C@H](CN1CC(=O)NC(=O)C1)N1CC(=O)NC(=O)C1 | – | > 100 µM
95 | O=c1oc(-c2ccccc2)cc2cccc(O)c12 | 20.2 | 70.1 µM
